# Test results as given in article PMC9911399, “Two distinct binding modes provide the RNA-binding protein RbFox with extraordinary sequence specificity”.
# Substitutions are numbered along the chain they refer to; changes in the protein carry UniProt numbers. The list shows a part of the results.
# B1: AGUCACU (DNA:RNA)
# RNA: GGGAGACCGGAAUUCAGAUUGUCCAGUCACUUUAAAUCCCGUCGUAGCCACCA
# DNA 1: CAATCTGAATTCCGGTCTCCC
# DNA 2: TGGTGGCTACGACGGGATT
# B2: CUACAGC (DNA:RNA)
# RNA: B1 RNA with A25C, G26U, U27A, C30G, U31C
# DNA 1: CAATCTGAATTCCGGTCTCCC
# DNA 2: TGGTGGCTACGACGGGATT
# B3: CGUGGAG (DNA:RNA)
# RNA: B1 RNA with A25C, C28G, A29G, C30A, U31G
# DNA 1: CAATCTGAATTCCGGTCTCCC
# DNA 2: TGGTGGCTACGACGGGATT
# B4: GAGGAAC (DNA:RNA)
# RNA: B1 RNA with A25G, G26A, U27G, C28G, C30A, U31C
# DNA 1: CAATCTGAATTCCGGTCTCCC
# DNA 2: TGGTGGCTACGACGGGATT
# B5: UUACUUA (DNA:RNA)
# RNA: B1 RNA with A25U, G26U, U27A, A29U, C30U, U31A
# DNA 1: CAATCTGAATTCCGGTCTCCC
# DNA 2: TGGTGGCTACGACGGGATT
# B6: UCUGACA (DNA:RNA)
# RNA: B1 RNA with A25U, G26C, C28G, U31A
# DNA 1: CAATCTGAATTCCGGTCTCCC
# DNA 2: TGGTGGCTACGACGGGATT
# B7: GAAGGGG (DNA:RNA)
# RNA: GGGAGACCGGAAUUCAGAUUGUCCGAAGGGGUUAAAUCCCGUCGUAGCCACCA
# DNA 1: CAATCTGAATTCCGGTCTCCC
# DNA 2: TGGTGGCTACGACGGGATT
# B8: AGUCGAU (DNA:RNA)
# RNA: B1 RNA with A29G, C30A
# DNA 1: CAATCTGAATTCCGGTCTCCC
# DNA 2: TGGTGGCTACGACGGGATT
# B9: AUGUUUA (DNA:RNA)
# RNA: B1 RNA with G26U, U27G, C28U, A29U, C30U, U31A
# DNA 1: CAATCTGAATTCCGGTCTCCC
# DNA 2: TGGTGGCTACGACGGGATT
# B10: GUUUGCU (DNA:RNA)
# RNA: B1 RNA with A25G, G26U, C28U, A29G
# DNA 1: CAATCTGAATTCCGGTCTCCC
# DNA 2: TGGTGGCTACGACGGGATT
# B11: AAGGGAU (DNA:RNA)
# RNA: B7 RNA with G25A, A27G, G30A, G31U
# DNA 1: CAATCTGAATTCCGGTCTCCC
# DNA 2: TGGTGGCTACGACGGGATT
# B12: AGCACAA (DNA:RNA)
# RNA: B1 RNA with U27C, C28A, A29C, C30A, U31A
# DNA 1: CAATCTGAATTCCGGTCTCCC
# DNA 2: TGGTGGCTACGACGGGATT
# B13: CCAGCAG (DNA:RNA)
# RNA: B7 RNA with G25C, A26C, G29C, G30A
# DNA 1: CAATCTGAATTCCGGTCTCCC
# DNA 2: TGGTGGCTACGACGGGATT
# B14: AAACCCU (DNA:RNA)
# RNA: B1 RNA with G26A, U27A, A29C
# DNA 1: CAATCTGAATTCCGGTCTCCC
# DNA 2: TGGTGGCTACGACGGGATT
# B15: GCACAAC (DNA:RNA)
# RNA: B1 RNA with A25G, G26C, U27A, C30A, U31C
# DNA 1: CAATCTGAATTCCGGTCTCCC
# DNA 2: TGGTGGCTACGACGGGATT
# B16: UAAAAAU (DNA:RNA)
# RNA: B1 RNA with A25U, G26A, U27A, C28A, C30A
# DNA 1: CAATCTGAATTCCGGTCTCCC
# DNA 2: TGGTGGCTACGACGGGATT
# B17: CACGACG (DNA:RNA)
# RNA: B7 RNA with G25C, A27C, G29A, G30C
# DNA 1: CAATCTGAATTCCGGTCTCCC
# DNA 2: TGGTGGCTACGACGGGATT
# B18: UAUGUGU (DNA:RNA)
# RNA: B7 RNA with G25U, A27U, G29U, G31U
# DNA 1: CAATCTGAATTCCGGTCTCCC
# DNA 2: TGGTGGCTACGACGGGATT
# B19: UAGAACC (DNA:RNA)
# RNA: B1 RNA with A25U, G26A, U27G, C28A, U31C
# DNA 1: CAATCTGAATTCCGGTCTCCC
# DNA 2: TGGTGGCTACGACGGGATT
# B20: UGAAGAG (DNA:RNA)
# RNA: B7 RNA with G25U, A26G, G28A, G30A
# DNA 1: CAATCTGAATTCCGGTCTCCC
# DNA 2: TGGTGGCTACGACGGGATT
# Target: T1, RBFOX1 RRM (Homo sapiens, UniProt Q9NWB1 109-208)
# T1 sequence: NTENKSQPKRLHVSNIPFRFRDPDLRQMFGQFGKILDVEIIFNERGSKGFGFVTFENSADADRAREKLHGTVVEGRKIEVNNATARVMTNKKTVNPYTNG
# Experiment: EMSA; HiTS-Eq, 1 nM pool, 10 min; buffer printed only for the single-RNA assays: 10 mM Tris pH 7.5, 150 mM NaCl, 3.4 mM EDTA, 0.001% NP-40, 30 C
# Details: tags: His6 N-terminal (pET28a); label: 5' 32P
# Outline: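 Relative association constants, normalised to the cognate motif, were derived by comparing read counts of each RNA species with those of the control reaction. The RNA sequenced was the free fraction, separated by 8% native PAGE after a 10 min equilibration in 50 µL of 1 nM 5′-radiolabelled RNA (7 randomized nucleotides) with increasing concentrations of purified wild-type or mutant RbFox RRM.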
row,Binder,binding signal
1,B1,0.00284 KA relative to UGCAUGU
2,B2,0.00157 KA relative to UGCAUGU
3,B3,0.015 KA relative to UGCAUGU
4,B4,0.0161 KA relative to UGCAUGU
5,B5,0.00269 KA relative to UGCAUGU
6,B6,0.00704 KA relative to UGCAUGU
7,B7,0.00926 KA relative to UGCAUGU
8,B8,0.0125 KA relative to UGCAUGU
9,B9,0.00454 KA relative to UGCAUGU
10,B10,0.0286 KA relative to UGCAUGU
11,B11,0.00671 KA relative to UGCAUGU
12,B12,0.00317 KA relative to UGCAUGU
13,B13,0.00706 KA relative to UGCAUGU
14,B14,0.000474 KA relative to UGCAUGU
15,B15,0.00592 KA relative to UGCAUGU
16,B16,0.00149 KA relative to UGCAUGU
17,B17,0.00336 KA relative to UGCAUGU
18,B18,0.0236 KA relative to UGCAUGU
19,B19,0.00723 KA relative to UGCAUGU
20,B20,0.018 KA relative to UGCAUGU
